# Measured values published in PubChem BioAssay AID651820 (National Center for Advancing Translational Sciences (NCATS), 2012).
# Values joined by “and” are separate entries in the source; they are usually repeats but may differ in a detail not shown here. Equal values may be shown once. In all, about 340,000 compounds went through this assay and about 12,000 (3.5%) were called active. Inconclusive means that the source gave no clear call. Such entries were picked first, then a sample of the others. Calls come from the whole dose curve; as a rule, active = well fitted inhibition curve with a large enough effect; inconclusive = small, poorly fitted or top-dose-only effect, or another doubt; inactive = no such curve, though single readings can be large or run the other way. Where the call is inconclusive, the potency comes from a doubtful curve fit.
# Experiment: qHTS Assay for Inhibitors of Hepatitis C Virus (HCV)
# Details: Huh7.5.1 HCVcc-Cre (HCVcc is cell-culture hepatitis C virus) infection, luciferase reporter, 44 h; activity change, negative = inhibition: at 41.8 µM (top of the series) unless noted
# How it was run: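 Compounds are dispensed onto cells plated 4 h earlier at 1,000 per well, with HCVcc-Cre virus (about 0.5 moi) added next. Following 44 h of culture, luminescent signal is measured for 15 sec after 15 min with substrate at room temperature.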
# % is set by controls: 0 for no effect and ±100 for the full control effect; potency is the fitted concentration of half-maximal effect; tags give direction and shape of the fitted curve.
Compound,Potency,"activity change, negative = inhibition"
O=C(COc1ccc(-c2ccccc2)cc1)N1CCN(C(=O)c2cccnc2)CC1,"inconclusive: 10 µM [inhibitor, partial curve]",
Cc1cc(S(=O)(=O)Nc2c(NC3CCCCC3)c3ccccc3oc2=O)ccc1F,"inconclusive: 11.2 µM [inhibitor, partial curve]",
Cc1ccc(OCc2ccccc2C)c([N+](=O)[O-])n1,"inconclusive: 31.6 µM [inhibitor, single point]",
COc1cc(-n2nc(C)c3c2OC(N)=C(C#N)C3c2ccccc2)c(Cl)c(Br)c1O (centres undefined),"inconclusive: 11.2 µM [inhibitor, single point]",
O=C(Nc1ccccc1-c1nnn(CC(=O)N2CCCc3ccccc32)n1)c1ccco1,"inconclusive: 2.82 µM [inhibitor, full curve, poor fit]",
CCn1nc(C(=O)OCC(=O)c2cc(C)n(Cc3cccs3)c2C)c2ccccc2c1=O,inactive,
COc1cc(-c2nnc3sc(C4CCCCC4)nn23)cc(OC)c1OC,"inconclusive: 10 µM [inhibitor, single point]",
CC(C)C1CC(CCNCc2ccc(N(C)C)cc2)(c2ccccc2)CCO1 (centres undefined),active: 11.2 µM,
COc1cc(/C=C2\SC(=Nc3ccc(O)cc3)NC2=O)cc(OC)c1O,"inconclusive: 12.6 µM [inhibitor, single point]",
CN(Cc1ccccc1)c1c([N+](=O)[O-])c(=O)n(C)c2ccccc12,"inconclusive: 22.4 µM [inhibitor, single point]",
COc1ccc(C)cc1NC(=O)Nc1ccc(C(=O)N2CCCC2)cc1,"inconclusive: 22.4 µM [inhibitor, single point]",
CCOC(=O)c1cc(NC(=O)CNCC(c2ccccc2)N(C)C)cc(C(=O)OCC)c1 (centres undefined),"inconclusive: 15.8 µM [inhibitor, partial curve]",
Cc1ccc(NC(=O)CSCC(=O)Nc2cc(Cl)ccc2N2CCN(C)CC2)cc1,"inconclusive: 10 µM [inhibitor, partial curve, poor fit]",
C=CCNC(=O)c1ccccc1NC(=O)c1ccccc1,"inconclusive: 1.26 µM [inhibitor, partial curve]",
Cc1ccccc1NC(=O)Cc1nc(COC(=O)c2cc([N+](=O)[O-])ccc2N)cs1,"inconclusive: 2.51 µM [inhibitor, partial curve]",
Cc1ccc(S(=O)(=O)N2CCCCC2)cc1NC(=O)C1CC1,,inactive: -8.13%
CCOC(=O)c1nc(Nc2ccc(Nc3ccccc3)cc2)c2ccccc2n1,active: 11.2 µM,
CCNC(=S)Nc1cc(OCC)c(NC(=O)c2cccs2)cc1OCC,"inconclusive: 11.2 µM [inhibitor, partial curve]",
Cc1c(C(=O)c2ccc(F)cc2)c2ccccn2c1CCc1ccccn1,"inconclusive: 31.6 µM [inhibitor, single point]",
CN1CCc2cccc3c2[C@H]1Cc1ccc(O)c(O)c1-3,"inconclusive: 25.1 µM [inhibitor, single point] and inconclusive: 22.4 µM [inhibitor, partial curve, poor fit]",
CCn1nnc(NC(=O)COc2ccc(C3CCCCC3)cc2)n1,"inconclusive: 31.6 µM [inhibitor, single point]",
CN(c1ccccc1)S(=O)(=O)c1cccc(C(=O)NCCc2ccc(O)c(O)c2)c1,"inconclusive: 3.55 µM [inhibitor, full curve]",
Cc1cccc(NC(=O)c2cc3c(n(-c4ccccc4)c2=O)CCCC3=O)n1,inactive,

Compound,Potency,"activity change, negative = inhibition"
Cc1ccc(C)c(SCC(=O)Nc2cccc(S(=O)(=O)N3CCOCC3)c2)c1,"inconclusive: 6.31 µM [inhibitor, partial curve]",
Cc1ccc2cc(C)c3nnc(SCC(=O)Nc4nc5c(s4)CCCC5)n3c2c1C,,inactive: -7.27%
COC(=O)CSc1nc2ccc(NC(=O)c3ccccc3C(=O)N3CCOCC3)cc2s1,,inactive: 3.16%
CCOc1cccc(CNCCSc2nnnn2C)c1,"inconclusive: 3.55 µM [inhibitor, single point]",
Nc1ncnc2c1nc(SCCO)n2Cc1ccccc1,,inactive: 10.4%
CCOC(=O)c1ccc(-c2c(-c3ccc4c(c3)OCO4)noc2C)cc1F,"inconclusive: 1.26 µM [inhibitor, full curve]",
COc1ccc(-n2c(=O)c(CCC(=O)N3CCC(C)CC3)nc3ccccc32)cc1,"inconclusive: 15.8 µM [inhibitor, single point]",
Cc1nc2ccccc2cc1OCc1ccccc1,active: 10 µM,
Cc1ccc(OCC(=O)N(C)CC(=O)Nc2ccc(F)cc2)c([N+](=O)[O-])n1,,inactive: 10.4%
Cc1cc(C)n2nc(SC(C)C(=O)N(C)C3CCCCC3)nc2n1 (centres undefined),,inactive: -1.68%
COc1cc2ncnc(N[C@H](C)c3ccccc3)c2cc1OC,"inconclusive: 22.4 µM [inhibitor, single point]",
Cc1nc(NCCCn2ccnc2)c2oc3ccccc3c2n1,"inconclusive: 5.01 µM [inhibitor, single point]",
Cc1ccc(COC(=O)c2ccc3ccccc3n2)cc1,,inactive: 4.19%
O=C(CSc1ncn[nH]1)c1ccc2c(c1)OCCO2,,inactive: -2.83%
CCOc1ccc(NC(=O)c2ccccc2CO)cc1,,inactive: 9.28%
Cn1c(=O)c2c(ncn2CC(=O)Nc2nc(-c3ccc(F)c(F)c3)cs2)n(C)c1=O,"inconclusive: 31.6 µM [inhibitor, single point]",
Cc1ccc(NC(=S)NC2CCCCC2)cc1S(=O)(=O)N(C)C,"inconclusive: 31.6 µM [inhibitor, single point]",
CCN(C(=O)COC(=O)c1cc(NS(=O)(=O)c2ccc(Cl)c([N+](=O)[O-])c2)ccc1O)C1CCCCC1,"inconclusive: 25.1 µM [inhibitor, single point]",
Cc1ncccc1C(=O)N1CCCC(CNC(=O)c2ccc(-c3ccccc3)cc2)C1 (centres undefined),"inconclusive: 12.6 µM [inhibitor, single point]",
CC(=O)N1CCN(c2ccc(NC(=O)c3ccc(C(C)(C)C)cc3)cc2)CC1,"inconclusive: 31.6 µM [inhibitor, single point] and inconclusive: 15.8 µM [inhibitor, single point]",
Cc1ccc(C(=O)Nc2cccc([N+](=O)[O-])c2)cc1S(=O)(=O)Nc1ccc(NC(=O)c2ccccc2)cc1,active: 10 µM,
CC(C)C(OC(=O)c1cccs1)C(=O)NCc1ccco1 (centres undefined),,inactive: -0.641%
COc1ccc(-c2ccnc3c(Br)c(C)nn23)cc1,"inconclusive: 31.6 µM [inhibitor, single point]",

Compound,Potency,"activity change, negative = inhibition"
Cc1cc(C)nc(NN=C2CCCC2)n1,,inactive: 10.2%
Cc1ccc(C(C)C)cc1OCC(=O)Nc1ccc(N2CCCCC2)cc1,"inconclusive: 0.501 µM [inhibitor, full curve, poor fit]",
Cc1cccn2c(=O)c3cc(C(=O)N4CC(C)CC(C)C4)sc3nc12 (centres undefined),,inactive: 10.9%
COc1ccc2c(c1)-c1c(sn(-c3ccc(OC)c(OC)c3)c1=S)C(C)(C)N2,active: 2.51 µM,
Cc1ccc(NC(=O)c2cc(N3C(=O)C=CC3=O)ccc2N2CCOCC2)cc1Cl,"inconclusive: 22.4 µM [inhibitor, single point]",
COc1ccc(CN2CC3CC(C2)c2cccc(=O)n2C3)cc1OC (centres undefined),,inactive: 1.63%
COc1cccc(OC)c1C(=O)Nc1ccccc1N1CCCCC1,"inconclusive: 31.6 µM [inhibitor, single point]",
Cn1cc(/C=N/NC(=O)COc2ccccc2[N+](=O)[O-])c2ccccc21,"inconclusive: 31.6 µM [inhibitor, single point]",
CC(C)C(=O)NC(=S)/C=C1/N(C)c2ccccc2C1(C)C,"inconclusive: 4.47 µM [inhibitor, full curve]",
CC(C)OC(=O)c1c(NC(=O)Cn2cnc([N+](=O)[O-])n2)sc2c1CCCC2,"inconclusive: 1.41 µM [inhibitor, full curve]",
O=[N+]([O-])c1cc(S(=O)(=O)Nc2cccc(Cl)c2)ccc1N/N=C/c1ccc(N2CCOCC2)cc1,,inactive: -0.282%
COC(=O)C1C(=O)C2=C(CC1C)NC(C)=C(C(=O)OC(C)C)C2c1ccc(C)o1 (centres undefined),,inactive: 19.2%
CCOc1ccc(OCCSc2nc3ccccc3[nH]2)cc1,"inconclusive: 10 µM [inhibitor, partial curve]",
CCOC(=O)c1cc(-c2ccc(N3CCOCC3)cc2)nn1-c1ccccc1,"inconclusive: 31.6 µM [inhibitor, single point]",
CC1CCCCN1CC(=O)Nc1cc(S(=O)(=O)N2CCOCC2)ccc1N1CCCC1 (centres undefined),"inconclusive: 11.2 µM [inhibitor, partial curve]",
COC(=O)c1cccc(C23CC4(C2)[C@H](CN(Cc2cccnc2)[C@@H]4c2ccccc2)C3c2ccccc2)c1 (some centres undefined),"inconclusive: 5.01 µM [inhibitor, single point]",
O=C(CCCSc1nnc(SCCCC(=O)c2ccc(F)cc2)s1)c1ccc(F)cc1,active: 10 µM,
O=C(COc1ccc(F)cc1Cl)Nc1cc(S(=O)(=O)N2CCOCC2)ccc1N1CCCCC1,"inconclusive: 22.4 µM [inhibitor, single point]",
Cc1ccc(C)c2c1[nH]c1ccccc12,active: 7.94 µM,
COc1cc(OC)c(C=CC(=O)c2ccccc2O)c(OC)c1,"inconclusive: 15.8 µM [inhibitor, single point]",
C/C(=N\NC(=O)c1n[nH]c2c1CCC2)c1cccs1,,inactive: 4.92%
COc1ccc(OC)c(CN2CCN(Cc3cccc4ccccc34)CC2)c1,"inconclusive: 31.6 µM [inhibitor, single point]",
Cc1ccc(N2C(=O)N3[C@H](c4ccc(Cl)cc4)[C@@H]4C(=O)N(C5CCCCC5)C(=O)[C@@H]4[C@]3(Cc3ccccc3)C2=O)cc1,"inconclusive: 31.6 µM [inhibitor, single point]",
